Reference: patent US7541342B2, “Use of PKC-activating compounds as cardioprotectants and as apoptosis-inducing anti-tumor agents” (University of Tennessee Research Foundation, priority 2005, dated 2009)

How the values were obtained:
Bcr-Abl = Bcr-Abl expression immunoblot in K562 cells
cardiomyocytes = experiment: Monitoring of ROS generation (CM-H2DCFDA oxidation); assay type: cell-based, rat; details: 2.0 μM DOX, 2.0 μM AD 198 or 3.0 μM H2O2 for 2 hr
Description: Primary murine cardiocyocytes from female C57 mice (Harlan, Indianapolis, Ind., United States of America) isolated as described by Lester, J. W., et al. (Am. J. Physiol. Heart Circ. Physiol., 271, H1778-J1785 (1996)), were preloaded with 5-(and-6)-chloromethyl-2′,7′-dichlorodihydrofluorescein diacetate, acetyl ester (CM-H2DCFDA; Molecular Probes, Eugene, Oreg., United States of America) in PBS for 1 hr, followed by removal of PBS and replacement with warm RPMI-1640 medium with 10% FBS. […] Cellular fluorescence was quantified by flow cytometry at an […] wavelength of 525 nm.

[1] = Chronic anthracycline cardiotoxicity model (Bertazzoli); details: DOX 1.15 to 4.6 mg/kg
[2] = i.v. single dose LD50 (30 days); details: mice
PKC-ε = experiment: PKC translocation immunoblot in primary cardiomyocytes; assay type: cell-based, rat; details: 0.1 μM
Description: FIG. 22 is an immunoblot analysis of PKC translocation in drug-treated rat cardiomyocytes. […] Total membrane fractions were isolated by differential centrifugation in the absence of non-ionic detergent, subjected to SDS-PAGE and prepared for immunoblot analysis using antibodies against the PKC isoforms.

COc1cccc2c1C(=O)c1c(O)c3c(c(O)c1C2=O)C[C@@](O)(C(=O)CO)CC3O[C@H]1C[C@H](NCc2ccccc2)[C@H](O)[C@H](C)O1 (some centres unmarked) [AD 288, N-Benzyladriamycin]
loss of Bcr-Abl expression, combination (Bcr-Abl; 0.25 μM combined with 10 μM imatinib, after 24 hours): 90% | Bcr-Abl expression, single agent (Bcr-Abl; 72 hrs, imatinib 10 μM, AD 198 or AD 288 0.25 μM): slight decrease

COc1cccc2c1C(=O)c1c(O)c3c(c(O)c1C2=O)C[C@@](O)(C(=O)CO)C[C@@H]3O[C@H]1C[C@H](N)[C@H](O)[C@H](C)O1 [DOX, Doxorubicin]
increase in CM-H2DCFDA fluorescence (cardiomyocytes): 37 fold | animals with overt cardiac damage [1]: 90-100% | i.v. single dose LD50 (30 days) [2]: 23 mg/kg

OO [H2O2, hydrogen peroxide]
increase in CM-H2DCFDA fluorescence (cardiomyocytes): approximately 26 fold

CCCCCCCCCCCCCC(=O)O[C@@H]1[C@@H](C)[C@@]2(O)[C@@H](C=C(CO)C[C@]3(O)C(=O)C(C)=C[C@@H]23)[C@@H]2C(C)(C)[C@]12OC(C)=O [PMA, reference compound]
increase in membrane-associated PKC-ε versus DMSO (PKC-ε; 5 min exposure): 5 fold | decrease of membrane-associated PKC-ε (PKC-ε; after 30 min): approximately 50%
